To fix the notation:
T1: RBFOX1 RRM RbFoxmut (Fox-RRM*) (Homo sapiens, UniProt Q9NWB1 109-208, R118D;E147R;N151S;E152T)
T1 sequence: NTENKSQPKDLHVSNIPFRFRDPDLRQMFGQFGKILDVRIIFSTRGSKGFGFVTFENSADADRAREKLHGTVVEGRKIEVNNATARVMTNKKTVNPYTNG

B1: CCGAAAA (DNA:RNA)
RNA: GGGAGACCGGAAUUCAGAUUGUCCCCGAAAAUUAAAUCCCGUCGUAGCCACCA
DNA 1: CAATCTGAATTCCGGTCTCCC
DNA 2: TGGTGGCTACGACGGGATT
B2: ACUAUCU (DNA:RNA)
RNA: B1 RNA with C25A, G27U, A29U, A30C, A31U
DNA 1: CAATCTGAATTCCGGTCTCCC
DNA 2: TGGTGGCTACGACGGGATT
B3: CAGUAAG (DNA:RNA)
RNA: B1 RNA with C26A, A28U, A31G
DNA 1: CAATCTGAATTCCGGTCTCCC
DNA 2: TGGTGGCTACGACGGGATT
B4: UCCUGUG (DNA:RNA)
RNA: B1 RNA with C25U, G27C, A28U, A29G, A30U, A31G
DNA 1: CAATCTGAATTCCGGTCTCCC
DNA 2: TGGTGGCTACGACGGGATT
B5: ACAACCA (DNA:RNA)
RNA: B1 RNA with C25A, G27A, A29C, A30C
DNA 1: CAATCTGAATTCCGGTCTCCC
DNA 2: TGGTGGCTACGACGGGATT
B6: UCCCCCA (DNA:RNA)
RNA: B1 RNA with C25U, G27C, A28C, A29C, A30C
DNA 1: CAATCTGAATTCCGGTCTCCC
DNA 2: TGGTGGCTACGACGGGATT
B7: CACAUAC (DNA:RNA)
RNA: B1 RNA with C26A, G27C, A29U, A31C
DNA 1: CAATCTGAATTCCGGTCTCCC
DNA 2: TGGTGGCTACGACGGGATT
B8: UGAAGAA (DNA:RNA)
RNA: B1 RNA with C25U, C26G, G27A, A29G
DNA 1: CAATCTGAATTCCGGTCTCCC
DNA 2: TGGTGGCTACGACGGGATT
B9: UUAGUCC (DNA:RNA)
RNA: GGGAGACCGGAAUUCAGAUUGUCCUUAGUCCUUAAAUCCCGUCGUAGCCACCA
DNA 1: CAATCTGAATTCCGGTCTCCC
DNA 2: TGGTGGCTACGACGGGATT
B10: ACAUUAA (DNA:RNA)
RNA: B1 RNA with C25A, G27A, A28U, A29U
DNA 1: CAATCTGAATTCCGGTCTCCC
DNA 2: TGGTGGCTACGACGGGATT
B11: UCCGAGA (DNA:RNA)
RNA: B1 RNA with C25U, G27C, A28G, A30G
DNA 1: CAATCTGAATTCCGGTCTCCC
DNA 2: TGGTGGCTACGACGGGATT
B12: UCAAUAC (DNA:RNA)
RNA: B9 RNA with U26C, G28A, C30A
DNA 1: CAATCTGAATTCCGGTCTCCC
DNA 2: TGGTGGCTACGACGGGATT
B13: AUUACGC (DNA:RNA)
RNA: B9 RNA with U25A, A27U, G28A, U29C, C30G
DNA 1: CAATCTGAATTCCGGTCTCCC
DNA 2: TGGTGGCTACGACGGGATT
B14: CGGCAAA (DNA:RNA)
RNA: B1 RNA with C26G, A28C
DNA 1: CAATCTGAATTCCGGTCTCCC
DNA 2: TGGTGGCTACGACGGGATT
B15: AGAACUA (DNA:RNA)
RNA: B1 RNA with C25A, C26G, G27A, A29C, A30U
DNA 1: CAATCTGAATTCCGGTCTCCC
DNA 2: TGGTGGCTACGACGGGATT
B16: GCGAGUC (DNA:RNA)
RNA: B1 RNA with C25G, A29G, A30U, A31C
DNA 1: CAATCTGAATTCCGGTCTCCC
DNA 2: TGGTGGCTACGACGGGATT
B17: CUACGUU (DNA:RNA)
RNA: B9 RNA with U25C, G28C, U29G, C30U, C31U
DNA 1: CAATCTGAATTCCGGTCTCCC
DNA 2: TGGTGGCTACGACGGGATT
B18: UAGUCAC (DNA:RNA)
RNA: B1 RNA with C25U, C26A, A28U, A29C, A31C
DNA 1: CAATCTGAATTCCGGTCTCCC
DNA 2: TGGTGGCTACGACGGGATT
B19: UACAGUG (DNA:RNA)
RNA: B1 RNA with C25U, C26A, G27C, A29G, A30U, A31G
DNA 1: CAATCTGAATTCCGGTCTCCC
DNA 2: TGGTGGCTACGACGGGATT
B20: CGAUUGA (DNA:RNA)
RNA: B1 RNA with C26G, G27A, A28U, A29U, A30G
DNA 1: CAATCTGAATTCCGGTCTCCC
DNA 2: TGGTGGCTACGACGGGATT
B21: CUUCCUC (DNA:RNA)
RNA: B9 RNA with U25C, A27U, G28C, U29C, C30U
DNA 1: CAATCTGAATTCCGGTCTCCC
DNA 2: TGGTGGCTACGACGGGATT
B22: CUACGAG (DNA:RNA)
RNA: B1 RNA with C26U, G27A, A28C, A29G, A31G
DNA 1: CAATCTGAATTCCGGTCTCCC
DNA 2: TGGTGGCTACGACGGGATT
B23: CCAGCAC (DNA:RNA)
RNA: B1 RNA with G27A, A28G, A29C, A31C
DNA 1: CAATCTGAATTCCGGTCTCCC
DNA 2: TGGTGGCTACGACGGGATT
B24: GAUAAGC (DNA:RNA)
RNA: B1 RNA with C25G, C26A, G27U, A30G, A31C
DNA 1: CAATCTGAATTCCGGTCTCCC
DNA 2: TGGTGGCTACGACGGGATT
B25: GCCCGCC (DNA:RNA)
RNA: B9 RNA with U25G, U26C, A27C, G28C, U29G
DNA 1: CAATCTGAATTCCGGTCTCCC
DNA 2: TGGTGGCTACGACGGGATT
B26: CCCUUCA (DNA:RNA)
RNA: B1 RNA with G27C, A28U, A29U, A30C
DNA 1: CAATCTGAATTCCGGTCTCCC
DNA 2: TGGTGGCTACGACGGGATT
B27: AUCCUCA (DNA:RNA)
RNA: B9 RNA with U25A, A27C, G28C, C31A
DNA 1: CAATCTGAATTCCGGTCTCCC
DNA 2: TGGTGGCTACGACGGGATT
B28: GCUCUGU (DNA:RNA)
RNA: B1 RNA with C25G, G27U, A28C, A29U, A30G, A31U
DNA 1: CAATCTGAATTCCGGTCTCCC
DNA 2: TGGTGGCTACGACGGGATT
B29: AUAGGCC (DNA:RNA)
RNA: B9 RNA with U25A, U29G
DNA 1: CAATCTGAATTCCGGTCTCCC
DNA 2: TGGTGGCTACGACGGGATT
B30: UCCAAGA (DNA:RNA)
RNA: B1 RNA with C25U, G27C, A30G
DNA 1: CAATCTGAATTCCGGTCTCCC
DNA 2: TGGTGGCTACGACGGGATT
B31: CCCUGGC (DNA:RNA)
RNA: B1 RNA with G27C, A28U, A29G, A30G, A31C
DNA 1: CAATCTGAATTCCGGTCTCCC
DNA 2: TGGTGGCTACGACGGGATT

Changes are numbered by the printed parent chain; changes in the protein carry UniProt numbers. Some of the results follow.

The target in the test is T1, RBFOX1 RRM RbFoxmut (Fox-RRM*). In words: EMSA; HiTS-Eq, 1 nM pool, 10 min; buffer printed only for the single-RNA assays: 10 mM Tris pH 7.5, 150 mM NaCl, 3.4 mM EDTA, 0.001% NP-40, 30 C. The settings on record: tags: His6 N-terminal (pET28a); label: 5' 32P. The procedure, abridged:
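These values rest on relative association constants, computed from read-count changes of each RNA species versus the control reaction and normalised to the cognate motif. Reads came from free RNA recovered by 8% native PAGE after purified RbFox RRM (wild type or mutant) at increasing concentrations was equilibrated for 10 min in 50 µL with 1 nM of a 5′-radiolabelled pool with 7 randomized nucleotides and DNA-annealed flanks.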
Take B1: the binding signal is 0.0828 KA relative to UGCAUGU.

Turning to B2, the binding signal is 0.0733 KA relative to UGCAUGU.

For the molecule B3, the binding signal is 0.103 KA relative to UGCAUGU.

B4: the binding signal was 0.119 KA relative to UGCAUGU.

As to B5, the binding signal is 0.0744 KA relative to UGCAUGU.

With B6, the binding signal is 0.138 KA relative to UGCAUGU.

With B7, the binding signal is 0.102 KA relative to UGCAUGU.

For the molecule B8, the binding signal was 0.0716 KA relative to UGCAUGU.

As for B9, the binding signal was 0.0962 KA relative to UGCAUGU.

For B10, the binding signal was 0.124 KA relative to UGCAUGU.

In the case of B11, the binding signal was 0.0734 KA relative to UGCAUGU.

With B12, the binding signal was 0.0867 KA relative to UGCAUGU.

Consider B13, for which the binding signal is 0.109 KA relative to UGCAUGU.

On to B14, for which the binding signal is 0.0857 KA relative to UGCAUGU.

Consider B15, for which the binding signal was 0.0901 KA relative to UGCAUGU.

In the case of B16, the binding signal was 0.111 KA relative to UGCAUGU.

B17: the binding signal is 0.112 KA relative to UGCAUGU.

With B18, the binding signal was 0.0921 KA relative to UGCAUGU.

In the case of B19, the binding signal was 0.0646 KA relative to UGCAUGU.

With B20, the binding signal was 0.184 KA relative to UGCAUGU.

With B21, the binding signal was 0.087 KA relative to UGCAUGU.

B22: the binding signal was 0.0812 KA relative to UGCAUGU.

With B23, the binding signal is 0.129 KA relative to UGCAUGU.

Consider B24, for which the binding signal was 0.076 KA relative to UGCAUGU.

As to B25, the binding signal is 0.0938 KA relative to UGCAUGU.

Consider B26, for which the binding signal is 0.0901 KA relative to UGCAUGU.

B27: the binding signal is 0.119 KA relative to UGCAUGU.

Take B28: the binding signal is 0.102 KA relative to UGCAUGU.

For the molecule B29, the binding signal was 0.172 KA relative to UGCAUGU.

Take B30: the binding signal was 0.109 KA relative to UGCAUGU.

B31: the binding signal was 0.109 KA relative to UGCAUGU.

For the origin of these results see paper PMC9911399, “Two distinct binding modes provide the RNA-binding protein RbFox with extraordinary sequence specificity”.
